Source: a compilation of properties of binary mixtures (doi:10.1016/j.jtice.2022.104275)
The densities may have been worked out from excess volumes.

Assay: xn = mol fraction of the nth substance listed
Settings: 100 kPa

CC#N + C=CC[n+]1ccn(C)c1.O=S(=O)([N-]S(=O)(=O)C(F)(F)F)C(F)(F)F
x2 = 0
Settings	mass density [kg/m3]
288.15 K	787.5
293.15 K	782.2
298.15 K	776.8
303.15 K	771.3
308.15 K	765.9
313.15 K	760.4
318.15 K	754.8

C=CC[n+]1ccn(C)c1.O=S(=O)([N-]S(=O)(=O)C(F)(F)F)C(F)(F)F + CC#N
mass density [kg/m3]
Settings	x1 = 0.1	x1 = 0.2	x1 = 0.3	x1 = 0.4	x1 = 0.499	x1 = 0.6	x1 = 0.7003	x1 = 0.7998	x1 = 0.9003	x1 = 1
288.15 K	1057.2	–	1291.7	1353	1397.5	1431.5	1457.9	1478.8	1496.1	–
293.15 K	1051.7	1196.3	1286.4	1347.7	1392.2	–	1452.7	1473.7	1490.9	1505.4
298.15 K	1046.2	–	1281	–	1387	1421.1	1447.5	–	1485.8	1500.3
303.15 K	–	1185.4	1275.6	1337.1	1381.7	1415.9	1442.3	–	1480.7	1495.3
308.15 K	1035.1	–	1270.3	1331.8	–	1410.7	–	1458.3	1475.7	–
313.15 K	–	1174.5	–	1326.5	1371.3	1405.5	–	1453.2	–	1485.2
318.15 K	1024	1169	1259.6	–	1366.1	1400.4	1427	1448.2	1465.6	1480.2

COCC[N+]1(C)CCCC1.O=S(=O)([N-]S(=O)(=O)C(F)(F)F)C(F)(F)F + CC#N
mass density [kg/m3]
Settings	x1 = 0.1	x1 = 0.2	x1 = 0.3	x1 = 0.4001	x1 = 0.5	x1 = 0.6	x1 = 0.7	x1 = 0.7999	x1 = 0.8999	x1 = 1
288.15 K	1054.3	1191.3	1272	1326	1365.1	1393.8	–	1435.4	1450.2	–
293.15 K	1049	1186.1	1266.9	1320.9	–	1388.9	–	–	1445.4	1458.2
298.15 K	1043.6	1180.8	1261.8	–	1355.2	1384	1407.9	1425.8	1440.7	1453.4
303.15 K	1038.2	1175.6	1256.7	1310.8	1350.2	–	–	1421	1435.9	1448.7
308.15 K	–	1170.4	1251.6	1305.9	1345.3	–	1398.3	1416.2	1431.2	–
313.15 K	1027.4	1165.1	1246.5	1300.9	–	1369.4	1393.5	–	1426.4	1439.3
318.15 K	1022	1159.9	1241.4	1295.9	1335.5	1364.6	1388.7	1406.7	1421.7	–

CC#N + COCC[N+]1(C)CCCC1.O=S(=O)([N-]S(=O)(=O)C(F)(F)F)C(F)(F)F
x2 = 0
Settings	mass density [kg/m3]
288.15 K	787.5
298.15 K	776.8
303.15 K	771.3
313.15 K	760.4
318.15 K	754.8

COCC[N+]1(C)CCCC1.N#C[N-]C#N + O
mass density [kg/m3]
Settings	288.15 K	293.15 K	298.15 K	303.15 K	308.15 K	313.15 K	318.15 K
x1 = 0.9189	1213.1	1209.9	–	1203.3	1200.1	1196.8	–
x1 = 0.9331	–	–	1207.2	1203.9	1200.6	1197.4	1194.2
x1 = 0.9509	1214.2	1210.9	1207.7	–	–	1197.9	1194.7
x1 = 0.9661	1214.6	–	1208.1	–	1201.6	–	1195.1
x1 = 1	1215.5	1212.2	1209	–	1202.5	–	1196
x2 = 0.0172	1215	1211.7	1208.4	1205.2	1201.9	1198.7	–
